The text below walks through data of paper PMC9911399, “Two distinct binding modes provide the RNA-binding protein RbFox with extraordinary sequence specificity”.

The chains are these.
T1: RBFOX1 RRM (Homo sapiens, UniProt Q9NWB1 109-208)
T1 sequence: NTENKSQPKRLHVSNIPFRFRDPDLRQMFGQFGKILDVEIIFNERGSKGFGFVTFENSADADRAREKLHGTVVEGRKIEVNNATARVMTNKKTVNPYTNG

B1: GAGGUUC (DNA:RNA)
RNA: GGGAGACCGGAAUUCAGAUUGUCCGAGGUUCUUAAAUCCCGUCGUAGCCACCA
DNA 1: CAATCTGAATTCCGGTCTCCC
DNA 2: TGGTGGCTACGACGGGATT
B2: UUUGGAC (DNA:RNA)
RNA: B1 RNA with G25U, A26U, G27U, U29G, U30A
DNA 1: CAATCTGAATTCCGGTCTCCC
DNA 2: TGGTGGCTACGACGGGATT
B3: UACGAAG (DNA:RNA)
RNA: B1 RNA with G25U, G27C, U29A, U30A, C31G
DNA 1: CAATCTGAATTCCGGTCTCCC
DNA 2: TGGTGGCTACGACGGGATT
B4: CCACAUU (DNA:RNA)
RNA: B1 RNA with G25C, A26C, G27A, G28C, U29A, C31U
DNA 1: CAATCTGAATTCCGGTCTCCC
DNA 2: TGGTGGCTACGACGGGATT
B5: CUAAACA (DNA:RNA)
RNA: GGGAGACCGGAAUUCAGAUUGUCCCUAAACAUUAAAUCCCGUCGUAGCCACCA
DNA 1: CAATCTGAATTCCGGTCTCCC
DNA 2: TGGTGGCTACGACGGGATT
B6: ACCUCCA (DNA:RNA)
RNA: B5 RNA with C25A, U26C, A27C, A28U, A29C
DNA 1: CAATCTGAATTCCGGTCTCCC
DNA 2: TGGTGGCTACGACGGGATT
B7: CAAUCAA (DNA:RNA)
RNA: B5 RNA with U26A, A28U, A29C, C30A
DNA 1: CAATCTGAATTCCGGTCTCCC
DNA 2: TGGTGGCTACGACGGGATT
B8: UAACACA (DNA:RNA)
RNA: B5 RNA with C25U, U26A, A28C
DNA 1: CAATCTGAATTCCGGTCTCCC
DNA 2: TGGTGGCTACGACGGGATT
B9: AAUACGC (DNA:RNA)
RNA: B1 RNA with G25A, G27U, G28A, U29C, U30G
DNA 1: CAATCTGAATTCCGGTCTCCC
DNA 2: TGGTGGCTACGACGGGATT
B10: UGGCCAU (DNA:RNA)
RNA: B1 RNA with G25U, A26G, G28C, U29C, U30A, C31U
DNA 1: CAATCTGAATTCCGGTCTCCC
DNA 2: TGGTGGCTACGACGGGATT
B11: GGCCAUU (DNA:RNA)
RNA: B1 RNA with A26G, G27C, G28C, U29A, C31U
DNA 1: CAATCTGAATTCCGGTCTCCC
DNA 2: TGGTGGCTACGACGGGATT
B12: AGGCCUG (DNA:RNA)
RNA: B1 RNA with G25A, A26G, G28C, U29C, C31G
DNA 1: CAATCTGAATTCCGGTCTCCC
DNA 2: TGGTGGCTACGACGGGATT
B13: GGACAUA (DNA:RNA)
RNA: B5 RNA with C25G, U26G, A28C, C30U
DNA 1: CAATCTGAATTCCGGTCTCCC
DNA 2: TGGTGGCTACGACGGGATT
B14: UCGCAUC (DNA:RNA)
RNA: B1 RNA with G25U, A26C, G28C, U29A
DNA 1: CAATCTGAATTCCGGTCTCCC
DNA 2: TGGTGGCTACGACGGGATT
B15: UCUGAUU (DNA:RNA)
RNA: B1 RNA with G25U, A26C, G27U, U29A, C31U
DNA 1: CAATCTGAATTCCGGTCTCCC
DNA 2: TGGTGGCTACGACGGGATT
B16: UAGCAGC (DNA:RNA)
RNA: B1 RNA with G25U, G28C, U29A, U30G
DNA 1: CAATCTGAATTCCGGTCTCCC
DNA 2: TGGTGGCTACGACGGGATT
B17: AUCUAAU (DNA:RNA)
RNA: B5 RNA with C25A, A27C, A28U, C30A, A31U
DNA 1: CAATCTGAATTCCGGTCTCCC
DNA 2: TGGTGGCTACGACGGGATT
B18: UGCACUA (DNA:RNA)
RNA: B5 RNA with C25U, U26G, A27C, A29C, C30U
DNA 1: CAATCTGAATTCCGGTCTCCC
DNA 2: TGGTGGCTACGACGGGATT
B19: CAUCUGG (DNA:RNA)
RNA: B1 RNA with G25C, G27U, G28C, U30G, C31G
DNA 1: CAATCTGAATTCCGGTCTCCC
DNA 2: TGGTGGCTACGACGGGATT
B20: GAGGCGA (DNA:RNA)
RNA: B1 RNA with U29C, U30G, C31A
DNA 1: CAATCTGAATTCCGGTCTCCC
DNA 2: TGGTGGCTACGACGGGATT

Residue numbers refer to the chain shown, from its start. This is one part of the list.

The assay deals with T1, RBFOX1 RRM. Nature of the assay: EMSA; HiTS-Eq, 1 nM pool, 10 min; buffer printed only for the single-RNA assays: 10 mM Tris pH 7.5, 150 mM NaCl, 3.4 mM EDTA, 0.001% NP-40, 30 C. The settings on record: tags: His6 N-terminal (pET28a); label: 5' 32P. In short, it runs like this: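 Purified RbFox RRM (wild type or mutant) was equilibrated for 10 min in 50 µL with 1 nM of a 5′-radiolabelled pool of RNA with 7 randomized nucleotides, its flanks annealed to DNA oligonucleotides, across increasing protein concentrations. Free RNA was separated by 8% native PAGE, excised, reverse-transcribed, PCR-barcoded and sequenced on an Illumina HiSeq 2500. Relative association constants came from read-count changes of each variant against the control reaction, normalised to the cognate motif.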
(In general: A gel shift assay detects complexes by their altered migration in electrophoresis.)
Turning to B1, the binding signal was 0.0204 KA relative to UGCAUGU. As for B2, the figure is 0.00452 KA relative to UGCAUGU; as for B3, 0.00764 KA relative to UGCAUGU. With B4 the figure was 0.000968 KA relative to UGCAUGU; with B5, 0.00246 KA relative to UGCAUGU; with B6, 0.00269 KA relative to UGCAUGU. With B7 the figure was 0.00098 KA relative to UGCAUGU. For the molecule B8, the binding signal was 0.000618 KA relative to UGCAUGU. With B9 the figure was 0.00513 KA relative to UGCAUGU; with B10, 0.0115 KA relative to UGCAUGU; with B11, 0.00612 KA relative to UGCAUGU.

In the case of B12, the binding signal is 0.0213 KA relative to UGCAUGU. With B13 the figure was 0.0152 KA relative to UGCAUGU; with B14, 0.0121 KA relative to UGCAUGU. B15: the binding signal is 0.0122 KA relative to UGCAUGU. Consider B16, for which the binding signal was 0.00974 KA relative to UGCAUGU. With B17 the figure was 0.00114 KA relative to UGCAUGU. As for B18, the figure is 0.0154 KA relative to UGCAUGU; as for B19, 0.00701 KA relative to UGCAUGU; as for B20, 0.0186 KA relative to UGCAUGU.
